Among all 50,000 compounds or so, about 800 (1.6%) showed an effect of 50% or more. Some of the results follow.

The target in this experiment is Bcl-2-like protein 10 (Homo sapiens) (UniProt Q9HD36). In words: TR3 peptide-Bcl-B binding displacers, biochemical primary FP assay, phenotype converters (AID 1240).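 Also: 0% = Bcl-B with tracer peptide and DMSO and 100% = tracer peptide lacking Bcl-B.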 The conditions noted are these: GST-Bcl-B / FITC-TR3 peptide fluorescence polarization; stronger effect = higher value; compound at 3.75 mg/L. A general note: Fluorescence polarisation rises when a labelled molecule tumbles more slowly, as on binding a larger partner.
Sequence of UniProt Q9HD36 (Q9HD36 whole entry, looked up): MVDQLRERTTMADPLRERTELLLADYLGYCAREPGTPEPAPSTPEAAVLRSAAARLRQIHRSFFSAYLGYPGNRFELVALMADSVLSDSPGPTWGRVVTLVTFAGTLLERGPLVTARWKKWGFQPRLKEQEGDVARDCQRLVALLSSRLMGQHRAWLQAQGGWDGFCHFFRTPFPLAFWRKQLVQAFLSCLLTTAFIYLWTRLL
For `O=C1N/C(=N/N=C/c2ccccc2)SC1Cc1ccccc1Cl` (stereo not drawn), the displacement was found to be 15.6%.
As for `COc1ccc(NC(=O)CCc2ccccc2)cc1Cl`, the displacement was -2.5%.
Then `NC(=O)c1cccc(N2C(=O)C=CC2=O)c1`, with -6%; and `CC1CCN(S(=O)(=O)c2ccc(NC(=O)c3ccc([N+](=O)[O-])cc3)cc2)CC1`, with 14.1%; and `COc1cccc(C2C(C(=O)OC3CCCC3)=C(C)NC3=C2C(=O)CC(C)(C)C3)c1` (stereo not drawn), with 3.3%.
`CN(C)CCNC(=O)C(=O)NC(c1ccccc1)c1ccccc1`: the displacement was -15.6%.
The result for `COc1cccc(-c2nc(-c3ccc(Br)cc3)no2)c1` reads -4.2%; that for `O=C(O)c1ccccc1C(=O)Nc1cccc(-c2cn3ccccc3n2)c1`, 7.5%.
Then `O=C1/C(=C\c2ccc(-c3ccc([N+](=O)[O-])cc3Cl)o2)SC(=S)N1Cc1ccccc1`, with -5.1%; and `CCCCOC(=O)CNc1nnc(SCC(=O)OCC)[nH]c1=O`, with -7.7%; and `C/C(O)=C/c1nc2ccccc2n(-c2ccccc2)c1=O`, with 1.8%.
Then `O=C(NC(Cc1ccccc1)C(=O)NCc1ccco1)OCc1ccccc1` (stereo not drawn), with 35.9%; and `CCOc1ccc(C(=O)Nc2cccc3nsnc23)cc1`, with 2.9%; and `Nc1ccc(C(=O)Nc2cccc(-c3nc4ccccc4o3)c2)cc1`, with -4.5%.
Turning to `O=C(/C=C/c1ccc2c(c1)OCO2)Nc1ccc(F)c(F)c1`, the displacement was determined as 23.7%.
Then `CCOc1ccc(N2C(=O)C(C)C(Cc3cc(C)cc(C)c3)C2=O)cc1` (stereo not drawn), with -3.3%; and `COc1ccc(-n2nc3cc(C)c(NC(=O)c4cc(I)ccc4Cl)cc3n2)cc1`, with 7%; and `COc1ccc(S(=O)(=O)N2CCN(Cc3cccnc3)CC2)cc1`, with -14.6%.
As for `CC(C)c1ccc(NC(=O)c2c(Cl)cccc2Cl)cc1`, the displacement worked out at 11.9%.
The result for `CCOc1ccc(N2C(=O)S/C(=C\c3ccc(F)cc3)C2=O)cc1` reads -7%; that for `C=CCn1c(-c2ccccc2)c(NC(=O)c2ccco2)sc1=Nc1ccccc1Cl`, 3.9%.
Then `Cn1c(O)c(/C=C2/C=CC=N2)c(=O)n(-c2ccccc2)c1=S`, with 19.6%.
The result for `O=C(c1nc2nc(-c3ccccc3)cc(C(F)(F)F)n2n1)N1CCN(Cc2ccccc2)CC1` reads -12.6%; that for `COc1ccccc1CN1CCN(C(=O)c2ccc(-c3ccccc3)cc2)CC1`, -2.1%; that for `c1cncc(CN2CCN(Cc3ccco3)CC2)c1`, -10.5%.
Take `CCCCCN1C(=O)/C(=C2\SC(=S)NC2=O)c2ccccc21`: the displacement was 5.2%.
Then `N/C(=N\OC(=O)COc1ccc(Cl)cc1Br)c1cccnc1`, with -8%.
Take `O=C(NC(=S)Nc1cccc(NC(=O)c2ccco2)c1)c1ccc(Cl)cc1`: the displacement is -4.8%.
Then `O=C(Nc1ccccc1C(=O)O)c1ccc(N2C(=O)c3cccc([N+](=O)[O-])c3C2=O)cc1`, with 5.9%; and `COC(=O)/C(=C/C(=O)c1ccc(Cl)cc1)Nc1ccc(OC)cc1`, with -19.5%; and `O=C(Cc1ccccc1)Nc1ccc2nn(-c3ccc(F)cc3)nc2c1`, with 6.3%.
The result for `COC(=O)c1c(NC(=O)C2CC=CCC2C(=O)O)sc2c1CCC(C(C)(C)C)C2` (stereo not drawn) reads 1.4%; that for `COC(=O)c1ccccc1NC(=O)c1c(C)c(-c2ccc(C)cc2)nc2ccccc12`, -51.1%.
Consider `COc1ccccc1C(=O)NN1C(=O)/C(=C/c2cccc(Br)c2)SC1=S`, for which the displacement was found to be 43.6%.
Then `CCCc1noc(-c2ccccc2Cl)n1`, with 17%; and `O=C(CCn1c2ccccc2c2ccccc21)N/N=C/c1ccccc1O`, with 0.8%; and `COc1ccc(CN2CCN(C(=O)c3cccs3)CC2)cc1Br`, with 3.6%.
The result for `Cc1ccc(OCC(=O)NCc2ccccc2Cl)c(C)c1` reads 6.6%.
Regarding `C=CCn1c2ccccc2n2nc(C)c(C(=O)/C=C/c3ccccc3[N+](=O)[O-])c12`, the displacement is 2.7%.
In the case of `COc1cc([N+](=O)[O-])ccc1NC(=O)COc1ccccc1Cl`, the displacement was -2.8%.
The result for `O=C(/C=C/c1ccco1)NC(=S)N(Cc1ccccc1)c1ccccc1` reads 15.4%.
As for `C/C(CC(=O)Nc1ccccc1C(N)=O)=N\NC(=O)c1ccoc1C`, the displacement is -5.2%.
The result for `COC(=O)c1cc(NC(=O)/C=C/c2ccc(Cl)cc2)cc(C(=O)OC)c1` reads 15.4%; that for `O=C(Nc1ccc(S(=O)(=O)Nc2nccs2)cc1)c1ccc(Cl)c(Cl)c1`, 0.3%.
As for `COc1ccc(C2Nc3ccccc3NC3=C2C(=O)CC(C)(C)C3)cc1OCc1ccccc1` (stereo not drawn), the displacement is -0.1%.
Then `COc1ccc(/C=C/C(=O)c2ccc(Cl)cc2)cc1OC`, with -2.7%; and `Cc1ccc(NC(=O)CCCN(C)S(=O)(=O)c2ccc(C)cc2)cc1`, with 10.3%.
Then `CC(=O)c1c(OC(=O)c2ccc(Cl)cc2[N+](=O)[O-])ccc2c(C)cc(=O)oc12`, with 9.4%; and `O=C(O)CC1S\C(=N/N=C\C=C/c2ccccc2)N(c2ccc(O)cc2)C1=O` (stereo not drawn), with 12.5%.
Then `COc1ccc(-c2cc(-c3ccccc3)[nH]c(=O)n2)cc1OC`, with -5.4%; and `CCCOc1ccc(N2C(=O)CC(Nc3ccc(OC(F)(F)F)cc3)C2=O)cc1` (stereo not drawn), with -4.8%; and `O=c1/c(=C/c2ccc(Oc3ccc(C(F)(F)F)cc3[N+](=O)[O-])c(Cl)c2)sc2nc3ccccc3n12`, with 17.2%.
Consider `COc1ccc(N(CC(=O)N/N=C/c2ccc(OC3CSC3)cc2)S(=O)(=O)c2ccccc2)cc1`, for which the displacement was 3.9%.
Take `Cc1cc(=O)n2[nH]c(-c3cccs3)cc2n1`: the displacement was found to be 13.8%.
Regarding `N=c1n(CC(=O)O)c2ccccc2n1Cc1ccc(Cl)cc1`, the displacement was -4%.
Then `COc1ccc(CC(=O)N(C)CC(OC)OC)cc1`, with 5.1%; and `COc1ccc2c(c1)-c1c(ssc1=S)C(C)(C)N2C(=O)CSc1ncn[nH]1`, with 13.1%.
Turning to `CCOc1cc(C=C2C(=O)NC(=S)NC2=O)ccc1OCCOCCOc1ccc(C)cc1`, the displacement is -5.2%.
The result for `O=C(CSc1ncccn1)N/N=C/c1ccccc1[N+](=O)[O-]` reads -1.6%.
Take `CCN(CC)c1ccc(/C=N/Nc2nc(-c3cc4cccc(OC)c4oc3=O)cs2)c(O)c1`: the displacement is -7.3%.
Then `O=C(NNS(=O)(=O)Cc1ccccc1)c1ccc([N+](=O)[O-])cc1`, with 7.5%; and `CCCCOC(=O)Cn1c(=N)n(CCN2CCOCC2)c2ccccc21`, with 11.6%.
As for `O=C(NCC(O)CNC(=O)C(F)(F)C(F)(F)F)C(F)(F)C(F)(F)F`, the displacement was -4.5%.
For `CCOc1ccccc1NC(=O)c1c(NC(=O)c2ccccc2Cl)sc2c1CCC2`, the displacement was found to be 5.6%.
Then `CCCc1ccc(-c2nc(-c3ccc(F)cc3)no2)cc1`, with -6.8%; and `COc1ccccc1OCCn1cc(C=O)c2ccccc21`, with -4.5%; and `O=C(NCCCO)C(=O)Nc1ccc(F)cc1`, with 10.5%.
The result for `COc1c(-c2cc(-c3ccccc3)n[nH]2)c(O)c(OC)c2occc12` reads 8.3%.

Values taken from PubChem BioAssay AID1240 (Sanford-Burnham Center for Chemical Genomics, 2008).
